Test results taken from the supplement of paper PMC10037445.
“And” between values parts separate entries of the source, which are not always exact repeats. Identical values can stand only once. The full ranking holds about 2,900 compounds; the median of “NF-kB SEAP reporter activity, fold change vs agonist alone” is about 0.99, and the highest 2% start at about 2.6. Some of the results follow.

What was measured:
[1] = system: RAW-Dual; test: NF-kB SEAP reporter activity, fold change vs agonist alone; cytotoxicity flag (confluency mask): cytotoxic (confluency <70% of control); higher = enhanced NF-kB activity
Summary of the method: (§1)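 Library stock was pin-tooled at 50 nL into 384-well plates of RAW-Dual macrophages (50,000 cells/well, DMEM), followed 1 h later by a PRR agonist, and the cells were kept at 37 °C, 5% CO2. Supernatant collected after 20 hours was read for IRF by QuantiLuc luminescence and for NF-κB by QuantiBlue absorbance at 620 nm. Reporter activity is fold change over agonist-alone wells, and a well counted as cytotoxic when its IncuCyte confluency was below 70% of agonist controls in both mask sets.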

[2] = system: RAW-Dual; test: NF-kB SEAP reporter activity, fold change vs agonist alone; higher = enhanced NF-kB activity; settings: library stock concentration (final ~1000-fold dilution): 10 mM
Summary of the method: as §1

[3] = system: RAW-Dual; test: NF-kB SEAP reporter activity, fold change vs agonist alone; cytotoxicity flag (confluency mask): not cytotoxic; higher = enhanced NF-kB activity
Summary of the method: as §1

[4] = agonist: ODN 1826 (TLR9) 0.5 ug/mL
[5] = agonist: Pam2CSK4 (TLR2/6) 0.1 ug/mL
[6] = agonist: Pam3CSK4 (TLR2/1) 0.1 ug/mL
[7] = cytotoxicity flag (confluency mask): cytotoxic (confluency <70% of control), agonist: Imiquimod (TLR7) […]
[8] = cytotoxicity flag (confluency mask): cytotoxic (confluency <70% of control), agonist: MPLA (TLR4) […]
[9] = cytotoxicity flag (confluency mask): not cytotoxic, agonist: Imiquimod (TLR7) […]
[10] = cytotoxicity flag (confluency mask): not cytotoxic, agonist: MPLA (TLR4) […]

## COc1ccc(NS(=O)(=O)c2sc3ccc(Cl)cc3c2C)cc1N1CCNCC1 (library stock concentration (final ~1000-fold dilution): 10 mM)
[1]; agonist: LPS (TLR4) 0.1 ug/mL
  NF-kB SEAP reporter activity: 0.967
[1]; [4]
  NF-kB SEAP reporter activity: 0.263
[1]; [5]
  NF-kB SEAP reporter activity: 0.622
[1]; [6]
  NF-kB SEAP reporter activity: 0.576

## COc1ccc(NS(=O)(=O)c2sc3ccc(Cl)cc3c2C)cc1N1CCNCC1
[2]; [7]
  NF-kB SEAP reporter activity: 1.64
[2]; [8]
  NF-kB SEAP reporter activity: 0.735

## COc1ccc2c(c1O)-c1c(O)c(OC)cc3c1C(C2)[N+](C)(C)CC3 (configuration not stated) (library stock concentration (final ~1000-fold dilution): 10 mM)
[3]; agonist: LPS (TLR4) 0.1 ug/mL
  NF-kB SEAP reporter activity: 1.1 and 1.18
[3]; [4]
  NF-kB SEAP reporter activity: 0.935 and 1.11
[3]; [5]
  NF-kB SEAP reporter activity: 1.01 and 1.08
[3]; [6]
  NF-kB SEAP reporter activity: 0.967 and 1.08

## CC1CNc2c(cccc2S(=O)(=O)NC(CCCNC(=N)N)C(=O)N2CCC(C)CC2C(=O)O)C1 (configuration not stated) (library stock concentration (final ~1000-fold dilution): 10 mM)
[3]; agonist: LPS (TLR4) 0.1 ug/mL
  NF-kB SEAP reporter activity: 0.837
[3]; [4]
  NF-kB SEAP reporter activity: 1.01
[3]; [5]
  NF-kB SEAP reporter activity: 0.87
[3]; [6]
  NF-kB SEAP reporter activity: 1.05

## CC1CNc2c(cccc2S(=O)(=O)NC(CCCNC(=N)N)C(=O)N2CCC(C)CC2C(=O)O)C1 (configuration not stated)
[2]; [9]
  NF-kB SEAP reporter activity: 0.988
[2]; [10]
  NF-kB SEAP reporter activity: 0.953

## CC12C=CC(=O)NC1CCC1C2CCC2(C)C(C(=O)Nc3cc(C(F)(F)F)ccc3C(F)(F)F)CCC12 (configuration not stated)
[2]; [9]
  NF-kB SEAP reporter activity: 0.289
[2]; [10]
  NF-kB SEAP reporter activity: 0.473

## CC12C=CC(=O)NC1CCC1C2CCC2(C)C(C(=O)Nc3cc(C(F)(F)F)ccc3C(F)(F)F)CCC12 (configuration not stated) (library stock concentration (final ~1000-fold dilution): 10 mM)
[3]; agonist: LPS (TLR4) 0.1 ug/mL
  NF-kB SEAP reporter activity: 0.556
[3]; [4]
  NF-kB SEAP reporter activity: 0.406
[3]; [5]
  NF-kB SEAP reporter activity: 0.441
[3]; [6]
  NF-kB SEAP reporter activity: 0.399

## Cl.Cl.OCCN1CCN(CCCN2c3ccccc3Sc3ccc(C(F)(F)F)cc32)CC1 (library stock concentration (final ~1000-fold dilution): 10 mM)
[1]; agonist: LPS (TLR4) 0.1 ug/mL
  NF-kB SEAP reporter activity: 0.742
[1]; [4]
  NF-kB SEAP reporter activity: 0.707
[1]; [5]
  NF-kB SEAP reporter activity: 0.568
[1]; [6]
  NF-kB SEAP reporter activity: 0.662

## Cl.Cl.OCCN1CCN(CCCN2c3ccccc3Sc3ccc(C(F)(F)F)cc32)CC1
[2]; [7]
  NF-kB SEAP reporter activity: 1.91
[2]; [8]
  NF-kB SEAP reporter activity: 1.39

## CCCc1nn(C)c2c(=O)[nH]c(-c3cc(S(=O)(=O)N4CCN(C)CC4)ccc3OCC)nc12.O=C(O)CC(O)(CC(=O)O)C(=O)O
[2]; [9]
  NF-kB SEAP reporter activity: 1.19
[2]; [10]
  NF-kB SEAP reporter activity: 0.852

## CCCc1nn(C)c2c(=O)[nH]c(-c3cc(S(=O)(=O)N4CCN(C)CC4)ccc3OCC)nc12.O=C(O)CC(O)(CC(=O)O)C(=O)O (library stock concentration (final ~1000-fold dilution): 10 mM)
[3]; agonist: LPS (TLR4) 0.1 ug/mL
  NF-kB SEAP reporter activity: 1.33
[3]; [4]
  NF-kB SEAP reporter activity: 1.28
[3]; [5]
  NF-kB SEAP reporter activity: 1.03
[3]; [6]
  NF-kB SEAP reporter activity: 1.2

## CC(C)NCC(O)COc1ccc(CCOCC2CC2)cc1 (configuration not stated) (library stock concentration (final ~1000-fold dilution): 10 mM)
[3]; agonist: LPS (TLR4) 0.1 ug/mL
  NF-kB SEAP reporter activity: 0.893 and 0.877
[3]; [4]
  NF-kB SEAP reporter activity: 0.774 and 0.772
[3]; [5]
  NF-kB SEAP reporter activity: 0.942 and 0.939
[3]; [6]
  NF-kB SEAP reporter activity: 1.28 and 0.997

## Cc1c(C(=O)NN2CCCCC2)nn(-c2ccc(Cl)cc2Cl)c1-c1ccc(I)cc1
[2]; [9]
  NF-kB SEAP reporter activity: 0.672
[2]; [10]
  NF-kB SEAP reporter activity: 1.01

## Cc1c(C(=O)NN2CCCCC2)nn(-c2ccc(Cl)cc2Cl)c1-c1ccc(I)cc1 (library stock concentration (final ~1000-fold dilution): 10 mM)
[3]; agonist: LPS (TLR4) 0.1 ug/mL
  NF-kB SEAP reporter activity: 1.36
[3]; [4]
  NF-kB SEAP reporter activity: 0.337
[3]; [5]
  NF-kB SEAP reporter activity: 0.793
[3]; [6]
  NF-kB SEAP reporter activity: 0.542

## CCc1nc(N)nc(N)c1-c1ccc(Cl)cc1 (library stock concentration (final ~1000-fold dilution): 10 mM)
[3]; agonist: LPS (TLR4) 0.1 ug/mL
  NF-kB SEAP reporter activity: 1.51
[3]; [4]
  NF-kB SEAP reporter activity: 1.29
[3]; [5]
  NF-kB SEAP reporter activity: 1.11
[3]; [6]
  NF-kB SEAP reporter activity: 1.04

## CCc1nc(N)nc(N)c1-c1ccc(Cl)cc1
[2]; [9]
  NF-kB SEAP reporter activity: 0.734
[2]; [10]
  NF-kB SEAP reporter activity: 1.23

## C=C1C(=O)OC2C1CCC(=C)C1CCC(=C)C12 (configuration not stated)
[2]; [7]
  NF-kB SEAP reporter activity: 0.468
[2]; [8]
  NF-kB SEAP reporter activity: 0.272
[2]; [9]
  NF-kB SEAP reporter activity: 0.25
[2]; [10]
  NF-kB SEAP reporter activity: 0.219

## C=C1C(=O)OC2C1CCC(=C)C1CCC(=C)C12 (configuration not stated) (library stock concentration (final ~1000-fold dilution): 10 mM)
[3]; agonist: LPS (TLR4) 0.1 ug/mL
  NF-kB SEAP reporter activity: 0.458
[3]; [4]
  NF-kB SEAP reporter activity: 0.224
[3]; [5]
  NF-kB SEAP reporter activity: 0.0695
[3]; [6]
  NF-kB SEAP reporter activity: 0.13
[1]; agonist: LPS (TLR4) 0.1 ug/mL
  NF-kB SEAP reporter activity: 0.209
[1]; [4]
  NF-kB SEAP reporter activity: 0.244
[1]; [5]
  NF-kB SEAP reporter activity: 0.101
[1]; [6]
  NF-kB SEAP reporter activity: 0.183

## O=c1cc(CO)occ1O (library stock concentration (final ~1000-fold dilution): 10 mM)
[3]; agonist: LPS (TLR4) 0.1 ug/mL
  NF-kB SEAP reporter activity: 1.08
[3]; [4]
  NF-kB SEAP reporter activity: 0.927
[3]; [5]
  NF-kB SEAP reporter activity: 1.08
[3]; [6]
  NF-kB SEAP reporter activity: 1.47

## O=c1cc(CO)occ1O
[2]; [10]
  NF-kB SEAP reporter activity: 1.03

## Cc1cccc(-c2[nH]c(C(C)(C)C)nc2-c2ccc3c(c2)OCO3)n1
[2]; [9]
  NF-kB SEAP reporter activity: 1.04
[2]; [10]
  NF-kB SEAP reporter activity: 1.49

## Cc1cccc(-c2[nH]c(C(C)(C)C)nc2-c2ccc3c(c2)OCO3)n1 (library stock concentration (final ~1000-fold dilution): 10 mM)
[3]; agonist: LPS (TLR4) 0.1 ug/mL
  NF-kB SEAP reporter activity: 1.76
[3]; [4]
  NF-kB SEAP reporter activity: 1.05
[3]; [5]
  NF-kB SEAP reporter activity: 0.839
[3]; [6]
  NF-kB SEAP reporter activity: 1.11

## CCn1c(C(=O)N(C2CC2)C2CC2)cc2c3c(ncn3C)c(Nc3cc(C)n(C)n3)nc21
[2]; [9]
  NF-kB SEAP reporter activity: 1.02
[2]; [10]
  NF-kB SEAP reporter activity: 1.2

## CCn1c(C(=O)N(C2CC2)C2CC2)cc2c3c(ncn3C)c(Nc3cc(C)n(C)n3)nc21 (library stock concentration (final ~1000-fold dilution): 10 mM)
[3]; agonist: LPS (TLR4) 0.1 ug/mL
  NF-kB SEAP reporter activity: 1.99
[3]; [4]
  NF-kB SEAP reporter activity: 1.13
[3]; [5]
  NF-kB SEAP reporter activity: 0.888
[3]; [6]
  NF-kB SEAP reporter activity: 0.841

## COc1cccc2oc(-c3ccccc3)cc(=O)c12
[2]; [10]
  NF-kB SEAP reporter activity: 1.03

## COc1cccc2oc(-c3ccccc3)cc(=O)c12 (library stock concentration (final ~1000-fold dilution): 10 mM)
[3]; agonist: LPS (TLR4) 0.1 ug/mL
  NF-kB SEAP reporter activity: 1.04
[3]; [4]
  NF-kB SEAP reporter activity: 1.24
[3]; [5]
  NF-kB SEAP reporter activity: 1.13
[3]; [6]
  NF-kB SEAP reporter activity: 0.887

## CC(C)c1nc(CN(C)C(=O)NC(CCN2CCOCC2)C(=O)NC(CCC(Cc2ccccc2)NC(=O)OCc2cncs2)Cc2ccccc2)cs1 (configuration not stated) (library stock concentration (final ~1000-fold dilution): 10 mM)
[3]; agonist: LPS (TLR4) 0.1 ug/mL
  NF-kB SEAP reporter activity: 0.904
[3]; [4]
  NF-kB SEAP reporter activity: 1.24
[3]; [5]
  NF-kB SEAP reporter activity: 0.65
[3]; [6]
  NF-kB SEAP reporter activity: 0.778

## CC(C)c1nc(CN(C)C(=O)NC(CCN2CCOCC2)C(=O)NC(CCC(Cc2ccccc2)NC(=O)OCc2cncs2)Cc2ccccc2)cs1 (configuration not stated)
[2]; [9]
  NF-kB SEAP reporter activity: 1.11
[2]; [10]
  NF-kB SEAP reporter activity: 0.986

## COC1/C=C/OC2(C)Oc3c(C)c(O)c4c(O)c(c(/C=N/N5CCN(C)CC5)c(O)c4c3C2=O)NC(=O)/C(C)=C/C=C/C(C)C(O)C(C)C(O)C(C)C(OC(C)=O)C1C (configuration not stated) (library stock concentration (final ~1000-fold dilution): 10 mM)
[3]; agonist: LPS (TLR4) 0.1 ug/mL
  NF-kB SEAP reporter activity: 0.987
[3]; [4]
  NF-kB SEAP reporter activity: 0.979
[3]; [5]
  NF-kB SEAP reporter activity: 0.906
[3]; [6]
  NF-kB SEAP reporter activity: 0.892

## COC1/C=C/OC2(C)Oc3c(C)c(O)c4c(O)c(c(/C=N/N5CCN(C)CC5)c(O)c4c3C2=O)NC(=O)/C(C)=C/C=C/C(C)C(O)C(C)C(O)C(C)C(OC(C)=O)C1C (configuration not stated)
[2]; [9]
  NF-kB SEAP reporter activity: 0.886
[2]; [10]
  NF-kB SEAP reporter activity: 0.877

## COS(=O)(=O)[O-].COc1cccc2c1nc1ccccc1[n+]2C (library stock concentration (final ~1000-fold dilution): 10 mM)
[1]; agonist: LPS (TLR4) 0.1 ug/mL
  NF-kB SEAP reporter activity: 0.473
[1]; [4]
  NF-kB SEAP reporter activity: 0.781
[1]; [5]
  NF-kB SEAP reporter activity: 0.271
[1]; [6]
  NF-kB SEAP reporter activity: 0.272

## COS(=O)(=O)[O-].COc1cccc2c1nc1ccccc1[n+]2C
[2]; [7]
  NF-kB SEAP reporter activity: 0.838
[2]; [8]
  NF-kB SEAP reporter activity: 0.899
